The values below come from the supplement of paper PMC12632987.

The labels stand for the following.
B1: LC3A_free_8_2505 (protein)
chain: MNQKVRDTAIKGLEELEKELVEKAKELGLSRLDILELELTIGSVIAEVFSLDDASPEEILETTKEGLEEIIELAKELSEELAELAKKKSEEILKELESLL
B2: LC3A_147_421 (protein)
chain: YKATVTVDLIVKGDAEEALAAIEELAKELLEKGADKVTIERERDEETGEIYVTVTIEATKETLEEAEAFANEVIDKFDELEERYSDKLKIGAISVEIEKA
B3: LC3A_28_1007 (protein)
chain: MSLIEKTKEEIKKALEQAEKGEDAFLEIEIPSTATKEEVEEVLKLIEEAAKEVSKLEGVKLYVVIDDSGSPEIHDLVVDRADEIEEKYPNVSVIIAYDDK
B4: LC3A_127_204 (protein)
chain: EEEELLKELLEKVEEASKYVDKIPEEGEEAREKAIELLEEAIKLAKKIPELKETVKDLEQALELVKKLKDLSPAEQEEAIDHILMILEGVAIEIESALLK
B5: LC3A_28_695 (protein)
chain: SALDAQLAAAAAAVAAAVAAGEDALVEFTVTGEATQEDIDRLLAGVEALAKQMAATGKLHVVVDLDGDVSQELQDRLADGLDALEAKYPHLSAVIALDED
B6: LC3A_3_1848 (protein)
chain: MEEIIEETLKLLEELGRSEEVIEAARRLLEELAKKGYLEAAKTLLEKLKELKDVSDEILLAMLEELLRKVTEENLSEEEAIKAIKEEARTALNESEIIEL
B7: LC3A_3_1765 (protein)
chain: MEEVVEAVRKRLAAAGADEETIKTAAEAVRLLLERGLEETAKKFVEALLELLAKSKELAADLAKEVLEILKTSKDSPEEIAKKVEEAIRVFLLEAEIEEL
B8: LC3A_free_46_2430 (protein)
chain: YVVEIDIDLLHEDKEVLEKAVKEIVEKIKEIAKKHNAEIKIEVEISKLEDGSYFARIKATVTVDTKETAEKIANEIIDAVDEIAEKYDVSYIISVEISEK
B9: LC3A_3_1537 (protein)
chain: MDEEIEETLEELREAGKSEETLEAFREAAELLKEKGYEEALRTFIEEMRKLIDLPDELLLDFAREVLELVKTEDISEEELIERIREIARTIRSEAEIEEL
B10: LC3A_free_39_2205 (protein)
chain: SEEAYKALEEELKKLEPYASKEAREAFLKAIREVGFSPEQIKAIAEELKKAKEAGADMEEILREAVKIIREGLAAGLSPEEIAKRVLEEIRDHINLIPLD
B11: LC3A_3_1556 (protein)
chain: MEELLEETLEELKAAGASEEVLEAAREAFEALRERGFEEAARTLAEEVREMLDLPDELLLDFLEEVRELVETEDLDEEEVRKEIRRIARTTRNEGEIIEL
B12: LC3A_28_650 (protein)
chain: MTIEEQLERALEEAERAREEGKPTVITLTVDGNATQEDIEKVIETMERIARILEDIPGSAIIVDVTGGVPQEYIDKLAEKGEEIEEKYPNVTVILALDEE
B13: LC3A_132_254 (protein)
chain: SEELLEKALKELKELLDKIVADLKAGKDPWPTINKLYELALKYAEKLSLEETEKLAEESEKYAEELFAKELDPNDEEARRTLDIVEMLLESVLIEKELRS
B14: LC3A_6_2066 (protein)
chain: KLYKITIDILLKSEKPEEALKVAKEIAEEIRKFAEEINKEYNGAVKKLEIKIEEIDGEVFLTIEIVAEEKAVNEIIDKVDEIVEENKEYVAASMISVEEL
B15: LC3A_127_194 (protein)
chain: ELKEVLERLIELARRAAELLDDPDADPEEVRRLLEELLEAAREAVKLDPSTQPLLDDAEEALALFEQLLAAPPEEREALREQLILLLDGIEIEAESKLLE
B16: LC3A_132_294 (protein)
chain: QEKKAEEILKKIKELIEKAKENIDDEEKVQKYLEEIEKLIKKAEKELTNEQLAKVMEEVEELLDELSRKFLEAGKEELAEEADGLRIEAASLRLRAEEKL
B17: LC3A_28_880 (protein)
chain: MTVEEALERAEREVEAAVAAGEEALVEVDISEPVTVEEAEELMRRLEELVELAAGLPRLSIVIDLSEVESQEALDIIADGAERLEERYPHVTVIIALADR
B18: LC3A_free_8_2552 (protein)
chain: DSQQFAQQVSAIIDQAEAQITAILTAAGADRLQQLDLELGFGEILAEVVSLSDKSKEEQVAAVTAGLAEVRELAKSLPPEAQAQVNAVIDQAEAEIKALL
B19: LC3A_3_1792 (protein)
chain: AEAEIEALLAELAAAGKSPETLEAVRRAATALAERGYEEALRTFLEELRRLRDAPDEILLWLAEEVLRLVEEEDLDEEELRERIRELARLAENEAEIEEL
B20: LC3A_28_831 (protein)
chain: SELEERIKKFLEEVKEAAEKGEEATFTLTIKSTDSLEEVKKAAEALKEAAKIASGKFNASIIIDLDGKIPQEKLDVLTDTADEVEKEYPNVNVIIALPEE
B21: LC3A_3_1682 (protein)
chain: MDELVEEVIKTAKENGLSEEALKALKKLLELLKERGFEEAIKTLLEELKKLKDIPSEIILAMFEDLLYLVETEDLSEEEIVEKIKEEAEIARNEKEIEEL
B22: LC3A_132_269 (protein)
chain: SEELLEEAKEELFALLDEIVALLAAGQDPWPAIKRLDEKAEEYAKKLSLEDTEELVEEAKAYAEERFAARLDPADAEARRVLDHVEMLLDSVLIEKELAD
B23: LC3A_28_731 (protein)
chain: SELEESIEKALKEAREAAARGEEAVITIKVPGTATEEDIEKVIETMEEIAEITKDLKSTSIIVDLDGKVPQEYIDKLLDRAEEIEKKYPNVTVILALDEE
B24: LC3A_free_39_2223 (protein)
chain: SEEEIEKLIKEVAKESGIDYEELKKKIEEIKEVGKLSNEQILEIVKAILEAVKAGADAKEILEEALKLTKELVAAGKSPEEIKEEILELIEDYRNLVPLD
B25: LC3A_3_1612 (protein)
chain: MEELIEEQLKKLKEAGFSEEVIEKAREVMEALAEKGFEEAIKTLTEELLKLKDVDPELIIETLDEILRKVTEEDLSEEEVIEFIKEEFRVTELESEIIEL
B26: LC3A_28_828 (protein)
chain: SNIEERIKKFKEEAAKAKAAGESATLTVTITSSDTLEEVEKIMKAIEEEAEKLKDVPNISIIIDFDGKISQEKLNKVTEAADRIEKKYPNINVIIALPED
B27: LC3A_free_46_2340 (protein)
chain: MTLEIEVDILADTEEKAKKAVEELVKKFKELAKKYNAKLEIEVEIEKLEDGSYYARIKATFSGLTKEQAEEIENEVADKVEEISEKYGVAAILSSEIIED
B28: LC3A_3_1614 (protein)
chain: LEELREKALKALKEAGYSEETLELFEEVVDLLEEKGYYEAAKTFLEEMLELKDLSEEIIRALLEEVLRLVKEEDLSEEELTERIKELARIARSEQEIIEL
B29: LC3A_45_1968 (protein)
chain: MAKATIDMLVPREKAEEVLEAIREAAAELEAESGGALKFDFETLDASYEATKNEEDVYLELDIYAPTKEQALDAADRLVDRVEERLGEKVAAIISVEEIP

Over roughly 2,300 sequences, “median log2 fold change of GCK-ALFA target abundance (FLAG IP / Myc IP barcode read proportion)” has its median near 0.095; the lowest 2% begin near -0.47. The list shows a part of the results.

The experiment addresses MAP1LC3A, Q9H492. Put plainly: median log2 fold change of GCK-ALFA target abundance (FLAG IP / Myc IP barcode read proportion) (log2 ratio); each designed protein is fused to an ALFA-tag nanobody in HEK293 cells to bring the named protein to FLAG-tagged glucokinase (GCK); Myc marks an untargeted standard; higher = target protein stabilised (more abundant). Particulars: target protein: 3xFLAG-MCP-GCK-ALFA reporter; HEK293 landing pad (RPLP). In a few lines: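 The readout is target abundance, the per-binder median log2 ratio of FLAG to Myc barcode read proportions. It came from HEK293 landing-pad cells carrying a recombined ALFA-nanobody-fused binder library, induced with 2 μg mL^−1 doxycycline and transfected with a plasmid for a FLAG-tagged target and a Myc-tagged standard. After 48 h, lysates were immunoprecipitated with anti-FLAG and anti-Myc, and circular RNA barcodes were reverse transcribed, amplified and sequenced. Each barcode needed a proportion of at least 10^−7 in both replicates and each binder at least 3 barcodes per replicate, a pseudocount of 10^−6 was added, and the replicates were pooled.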
In the case of B1, the “median log2 fold change” value is -0.246.

Regarding B2, the “median log2 fold change” value is -0.0507.

Regarding B3, the “median log2 fold change” value is -0.353.

Regarding B4, the “median log2 fold change” value was 0.109.

Consider B5, for which the “median log2 fold change” value was -0.089.

For the molecule B6, the “median log2 fold change” value was -0.359.

As for B7, the “median log2 fold change” value stood at 0.172.

Regarding B8, the “median log2 fold change” value is -0.11.

As for B9, the “median log2 fold change” value was 0.354.

For B10, the “median log2 fold change” value came to 0.0943.

As for B11, the “median log2 fold change” value is -0.176.

On to B12, for which the “median log2 fold change” value was determined as 0.152.

B13: the “median log2 fold change” value is -0.669.

B14: the “median log2 fold change” value is -0.173.

As for B15, the “median log2 fold change” value was 0.113.

On to B16, for which the “median log2 fold change” value was 0.0447.

Regarding B17, the “median log2 fold change” value is -0.0649.

Consider B18, for which the “median log2 fold change” value stood at 0.158.

Regarding B19, the “median log2 fold change” value is 0.195.

In the case of B20, the “median log2 fold change” value worked out at 0.0765.

Consider B21, for which the “median log2 fold change” value came to 0.0992.

In the case of B22, the “median log2 fold change” value was found to be 0.0564.

As to B23, the “median log2 fold change” value was -0.289.

Turning to B24, the “median log2 fold change” value is -0.0674.

As to B25, the “median log2 fold change” value was found to be 0.108.

Turning to B26, the “median log2 fold change” value was determined as 0.145.

B27: the “median log2 fold change” value is -0.131.

For B28, the “median log2 fold change” value was found to be 0.256.

Consider B29, for which the “median log2 fold change” value was -0.116.
